Survival data for 87 molecules are collected here from PubChem BioAssay AID463173 (ICCB-Longwood Screening Facility, Harvard Medical School, 2010).

Screen size: about 52,000 compounds; about 4,300 (8.3%) were called active. Cut-off read from the data, not from the text of the source: active = survival mostly below about 52% (no sharp cut-off); inactive = mostly above about 56%. The list shows a part of the results.

The assay deals with DeltatarO mutant. Description: S. aureus survival, RN4220 and DeltatarO strains – OD600, teichoic acid synthesis inhibitors, primary screen (AID 463173). The settings on record: S. aureus RN4220 wild type/DeltatarO growth, OD600, 18 h, hits give low values, screened at 18.75 µg/mL (by protocol).
With `CN(C(=O)C1CCN(c2ncnc3c2nc2n3CCCCC2)CC1)c1ccccc1F`, the survival is inactive: 76%.
In the case of `CC(=O)c1ccc(N2CCN(C(=O)c3cc4c(s3)-c3ccccc3OC4)CC2)cc1` it was inactive: 65%.
Consider `CC(C)C(NS(=O)(=O)c1ccc2c(c1)oc(=O)n2C)C(=O)NCc1ccccc1` (configuration not stated), for which the survival was inactive: 92%.
The same measure for `Cc1oc(-c2ccc(C(=O)NCc3ccccc3F)cc2)nc1COc1ccccc1`: inactive: 77%; for `Cc1ccc(NC(=O)C2CCN(S(=O)(=O)c3ccc4c(c3)CCCN4C(=O)C3CCC3)CC2)cc1`: inactive: 104%; for `O=C(CCS(=O)(=O)c1nc(-c2cccs2)cc(C(F)(F)F)n1)Nc1ccc(F)c(Cl)c1`: inactive: 67%.
In the case of `CSc1nc(N)c(C#N)c(C(C)C)c1C#N` it was inactive: 75%.
In the case of `O=C(NCCCN1CCCCC1)c1[nH]c2ccccc2c1Sc1ccc(Cl)cc1` it was active: 7%; in that of `NC(=O)C1CCN(C(=O)CSc2nc(O)cc(=O)[nH]2)CC1`, inactive: 77%; in that of `Cc1c(Cl)cccc1-n1ncc(C(=O)N2CCC(C)CC2)c1C1CCN(C(=O)OC(C)(C)C)CC1`, inactive: 60%.
With `Cc1cc(C)nc(NS(=O)(=O)c2ccc(NC(=O)c3nc(SC(C)C)ncc3Cl)cc2)n1`, the survival is inactive: 49%.
In the case of `CCOc1ccc(CCNC(=O)c2ccc3c(c2)nc2n3CCOC2)cc1OCC` it was inactive: 79%; in that of `O=C(CSc1nc2c([nH]c3ccccc32)c(=O)n1-c1ccc(F)cc1)NCc1ccc(F)cc1`, inactive: 80%; in that of `O=C(Nc1cccc(C(=O)OCc2cc(=O)n3c4c(sc3n2)CCCC4)c1)c1cccc(Cl)c1`, inactive: 69%.
Consider `COc1cccc(NC(=O)Cn2nnc(C(=O)NCCc3ccccc3)c2N)c1`, for which the survival was inactive: 144%.
As to `Cn1cnc2c(=O)oc3ccc(S(=O)(=O)N4CCN(c5ccccc5F)CC4)cc3c21`, the survival was inactive: 92%.
In the case of `Cc1nc(-c2ccc(S(=O)(=O)N(Cc3ccccc3)C(C)C)cc2)co1` it was inactive: 70%; in that of `N/C(=N\OCC(=O)Nc1ccccc1)c1nonc1N`, inactive: 92%.
In the case of `COc1ccc(CCn2c(=O)c3cccnc3n(CC(=O)Nc3ccc(C)cc3C)c2=O)cc1OC` it was inactive: 78%; in that of `CCN1C(=O)c2ccccc2S(=O)(=O)c2ccc(C(=O)NCc3ccccc3Cl)cc21`, inactive: 108%.
The same measure for `COC(=O)CSc1ncc2c(n1)-c1ccccc1N(Cc1cccc(F)c1)S2(=O)=O`: inactive: 96%.
Turning to `CCc1cccc(C)c1NS(=O)(=O)c1c(C)nc2sccn2c1=O`, the survival was inactive: 64%.
The same measure for `CCOC(=O)C1CCN(C(=O)CSc2n[nH]c(-c3ccc(F)cc3)n2)CC1`: inactive: 77%; for `COc1cccc(CNC(=O)c2c(C)oc3nc(C)nc(N4CCOCC4)c23)c1`: inactive: 69%.
In the case of `Cc1cc(C(=O)C(=O)Nc2nnc(C(C)C)s2)c(C)n1-c1ccccc1` it was inactive: 89%.
In the case of `CC(=O)c1cccc(NC(=O)C(C)n2c(=O)cc(-c3ccccc3)c3c(C)nn(C)c32)c1` (configuration not stated) it was inactive: 102%.
With `COc1cccc(CNC(=O)c2ccc(NC(=O)N3CCCCc4ccccc43)cc2)c1OC`, the survival was inactive: 80%.
The same measure for `CCOc1cccc(OCCCn2c(-c3ccc(Br)cc3)nc3ccccc3c2=O)c1`: inactive: 64%; for `CCOc1ccc(-c2cc(-c3nc(-c4ccc(C)cc4)no3)[nH]n2)cc1`: inactive: 94%; for `CCOc1ccccc1-c1nc(SCC(=O)c2ccc(OC)c(Br)c2)n[nH]1`: inactive: 53%.
The same measure for `CCc1ccc(NC(=O)C2CCCN(S(=O)(=O)c3c(C)noc3/C=C/N(C)C)C2)cc1` (configuration not stated): active: 42%; for `Cc1ccc(Cl)cc1N1CCN(C(=O)CCCCCn2c(=O)[nH]c3ccccc3c2=O)CC1`: inactive: 78%; for `Cc1cc(C(=O)c2cccs2)c(N)s1`: active: 33%.
`CC(C)OC(=O)c1cccnc1SCC(=O)Nc1ccc(C(F)(F)F)cc1Cl`: the survival is inactive: 97%.
In the case of `CCOC(=O)c1c(-c2ccccc2)csc1NC(=O)c1cc(-c2ccc(C)c(F)c2)on1` it was active: 52%.
In the case of `CCN(CC)S(=O)(=O)c1ccc2c(c1)N(CC(=O)N1CCN(c3ccc(Cl)cc3)CC1)C(=O)CO2` it was inactive: 74%; in that of `O=C(NC1CCCCCC1)C1c2ccccc2C(=O)N1Cc1ccccc1Cl` (configuration not stated), inactive: 96%; in that of `CC(C)(C)C(=O)NC1CCN(S(C)(=O)=O)CC1`, inactive: 95%.
Turning to `O=C(Cn1ccc2cc(S(=O)(=O)N3CCCCCC3)ccc21)NCCc1ccc(Cl)cc1`, the survival was inactive: 81%.
For the molecule `Cc1cc(-c2ccc(C)c(S(=O)(=O)Nc3cccc(C#N)c3)c2)on1`, the survival is inactive: 89%.
In the case of `COc1ccc(/C=C/C(=O)Nc2ccc(Cl)c(Cl)c2)cc1`, the survival was inactive: 66%.
The same measure for `O=C(COc1ccc(F)cc1)NCCc1nc2ccccc2[nH]1`: active: 57%; for `CCOc1ccc(CCNC(=O)c2c(C)oc3ncn(C)c(=O)c23)cc1`: inactive: 84%.
In the case of `O=C(NCCCO)Nc1ccc(Cl)cc1` it was inactive: 66%; in that of `Cc1cnc(=O)[nH]c1SCC(=O)Nc1nc2ccccc2s1`, inactive: 83%; in that of `Cc1ccc2oc(-c3cccc(NC(=O)c4sc5c([N+](=O)[O-])cccc5c4Cl)c3)nc2c1`, inactive: 67%.
`O=c1c2sccc2n(Cc2cc(=O)n3ccccc3n2)c(=O)n1-c1cccc(C(F)(F)F)c1`: the survival is inactive: 52%.
`Cc1ccc(-c2nnc(SCC(=O)NCc3ccccc3)nc2-c2ccc(C)cc2)cc1`: the survival was inactive: 99%.
In the case of `COc1ccccc1N1CCN(C(=O)c2cnc(N3CCCCC3)c3ccccc23)CC1` it was inactive: 90%; in that of `Cc1cc2c(cc3c(SCC(=O)Nc4cccc(Cl)c4C)nnc(C)n32)o1`, inactive: 102%.
In the case of `CCc1ccc(-n2c(=O)c3c(C)c(C(=O)N(C)C)sc3n(Cc3ccccc3F)c2=O)cc1` it was inactive: 71%; in that of `CCOc1ccccc1CNC(=O)CCn1ccc2cc(S(=O)(=O)N3CCCCC3)ccc21`, inactive: 128%.
The same measure for `O=C(CN(C(=O)CSc1nc2ccccc2o1)c1cccc(F)c1)NC1CCCCC1`: inactive: 105%; for `N#CCCSc1nnc(-c2ccncc2)n1Cc1ccccc1`: inactive: 99%.
For `Cn1c(=O)c2sccc2n2c(CCCC(=O)Nc3ccc(Oc4ccc(Cl)cc4)cc3)nnc12`, the survival was active: 24%.
In the case of `Cc1ccc(-c2cc3c(N4CCN(c5cc(C)ccc5C)CC4)nccn3n2)cc1` it was inactive: 68%.
`CC(=O)N1c2c(cc(Br)cc2S(=O)(=O)N2CCN(c3ccccc3)CC2)CC1C` (configuration not stated): the survival is inactive: 79%.
The same measure for `CC(C)CCOc1ccccc1Cn1c(=O)sc2ccccc21`: active: 3%; for `Cc1ccccc1NS(=O)(=O)c1ccc2[nH]c3c(c2c1)CCCCC3`: inactive: 89%.
In the case of `Cc1ccc(Cl)cc1N1CCN(C(=O)c2ccc3nc(N4CCC(C)CC4)sc3c2)CC1` it was active: 29%; in that of `CCOC(=O)c1cc(-c2ccccc2)n(CCC(=O)Nc2nc3c(C)cccc3s2)c1C`, inactive: 79%; in that of `COc1cccc(NC(=O)c2nnn(Cc3ccc(OC)c(Br)c3)c2N)c1`, inactive: 57%.
In the case of `CCc1nn2c(=O)cc(COC(=O)C3CCCCC3)nc2s1` it was inactive: 84%; in that of `CCn1cc(C(=O)NCc2ccccc2OC)c(=O)c2cc(S(=O)(=O)N3CCCCCC3)ccc21`, inactive: 60%; in that of `CCOC(=O)c1cc(-c2ccccc2)n(CCCC(=O)Nc2ccc(C)cc2Cl)c1C`, inactive: 74%.
With `Cc1cc(C)n(-c2nc(C)c(C)c(=O)n2CC(=O)Nc2ccc(Cl)c(Cl)c2)n1`, the survival was inactive: 82%.
The same measure for `COc1ccc(NC(=O)CCNS(=O)(=O)c2ccc3c(c2)CCN3C(=O)C2CC2)cc1Cl`: inactive: 67%.
On to `COc1ccc(-c2nnc(SCC(=O)Nc3cccc(Cl)c3C)nc2-c2ccc(OC)cc2)cc1`, for which the survival was inactive: 89%.
As for `COc1ccc(-c2cc(OC(=O)c3cccc(C)c3)c3c(C)oc(C)c3c(=O)c2)cc1`, the survival was inactive: 122%.
In the case of `Cc1cc(C)c(NC(=O)Cn2nnc(C(=O)Nc3ccc(F)cc3F)c2N)c(C)c1` it was inactive: 81%.
The same measure for `CC(=O)Nc1ccc(NC(=O)c2c(C)nn(-c3ccccc3)c2-n2cccc2)cc1`: inactive: 84%.
With `Cc1ccc(CNC(=O)c2ccc3c(c2)nc2n3CCCC2)cc1`, the survival is inactive: 86%.
In the case of `CCc1ccc(NC(=O)c2c(C(=O)Nc3ccccc3)sc3nc(C)cc(=O)n23)cc1` it was inactive: 96%; in that of `CN1C(=O)Cc2cc(S(=O)(=O)CCC(=O)N3CCN(c4cccc(Cl)c4)CC3)ccc21`, inactive: 62%.
The same measure for `Cc1ccsc1CCN1C(=O)N(c2ccc(F)cc2)C(=O)C1CC(=O)Nc1ccccc1` (configuration not stated): inactive: 60%.
Take `COc1cc(-c2noc(C3CC(=O)N(c4cc(C)ccc4C)C3)n2)cc(OC)c1OC` (configuration not stated): the survival was inactive: 69%.
The same measure for `COc1cccc(NS(=O)(=O)c2cc3c4c(c2)C(C)C(=O)N4CCC3)c1` (configuration not stated): inactive: 98%.
The same measure for `CCOc1ccc2nc3c(cc2c1)CN(CCO)C(=Nc1cccc(OC)c1)S3`: active: 47%.
The same measure for `COc1ccc(-n2nnnc2SCC(=O)c2ccc3c(c2)OCCO3)c(OC)c1`: inactive: 76%; for `COc1cccc(-c2cc(C(=O)N3CCN(c4ccc(F)cc4)CC3)no2)c1`: active: 44%.
On to `CCOc1ccc(NC(=O)Cn2cnc3c(oc4ccccc43)c2=O)cc1`, for which the survival is inactive: 80%.
Take `CCc1ccc(NC(=O)C2CCCN(S(=O)(=O)c3cccc4nonc34)C2)cc1` (configuration not stated): the survival was inactive: 83%.
The same measure for `COC(=O)c1c(O)c2c([nH]c1=O)CCCC2`: inactive: 68%; for `Cc1cc(C)c(NS(=O)(=O)c2cc(-c3cnc(C4CC4)o3)ccc2C)c(C)c1`: inactive: 125%; for `COc1ccc(CNC(=O)C2CCN(S(=O)(=O)c3ccc4nc5c(c(C(=O)O)c4c3)CC(C)CC5)CC2)cc1` (configuration not stated): inactive: 62%.
The same measure for `CCN1C(=O)c2ccccc2Sc2ccc(NC(=O)Cc3ccc(OC)cc3)cc21`: inactive: 62%; for `CCCn1cc(S(=O)(=O)c2cc(C)ccc2C)c(=O)c2cc(F)c(N3CCCCCC3)cc21`: inactive: 62%.
